Laboratory results: ChEMBL document CHEMBL4888484, “Replenishing the malaria drug discovery pipeline: Screening and hit evaluation of the MMV Hit Generation Library 1 (HGL1) against asexual blood stage Plasmodium falciparum ,using a nano luciferase reporter read-out” (2022)
Out of some 150,000 compounds screened, about 540 (0.36%) showed an effect of 50% or more. The list shows a part of the results.

System: Plasmodium falciparum
Assay: Primary screen in NF54 nanoGlo assay, in single point, at 2uM, 72h; a lower Z score goes with more inhibition
Type: functional, Erythrocyte
Conditions: timepoint 72 hour

Row | SMILES | % Inhibition | Z score
1 | Cc1cc(C)n(CCN(C)C(=O)Cc2ccc3[nH]c(C)nc3c2)n1 | -8% | 1.3
2 | CC(=O)Oc1c(-c2ccc(NC(=O)c3ccc(F)cc3)cc2)c(C2CC2)nn1-c1cccc(C)c1 | -6% | 0.71
3 | Cc1cc(C)nc(NC(=O)c2sc(C)nc2CC(C)C)n1 | -26% | 3.1
4 | COc1ccc(CC(=O)NCC2(c3ccncc3)CC2)cc1 | 6% | -0.87
5 | Cc1nncn1CCN1CCN(C(=O)c2ccccc2)CC1 | -19% | 2.42
6 | Cc1cc(C)c2c(N3CCCC3)nc(C(=O)N3CCN(C(C)C)CC3)nc2n1 | -9% | 1.45
7 | Cc1cccc(Cl)c1N1C(=O)N[C@]2(CCOC2)C1=O | 0% | 0.02
8 | CN(CC1CCc2ccccc21)C(=O)[C@@H]1CS(=O)(=O)CC(=O)N1 (stereo not given in full) | -6% | 1.26
9 | CCNS(=O)(=O)c1cc(-c2c(CC)noc2NC(C)=O)ccc1C | -3% | 0.41
10 | CC[C@@H](CO)NC(=O)Nc1ccc(F)cc1C#N | -2% | 0.2
11 | Cc1ccc(CNCc2cnn(C)c2)c(OCC2CC2)c1 | 2% | -0.29
12 | Nc1c2c(-c3cccc(Cl)c3)nc(NCCN3CCOCC3)nc2nn1-c1ccccc1Cl | -18% | 2.37
13 | O=S1(=O)CCc2cc(CN[C@H]3CCOC34CCCC4)ccc21 | -2% | 0.52
14 | O=C(NCCNc1cccc(Br)c1)[C@@H]1CCCO1 | 0% | -0.03
15 | Cn1cc(-c2ccc(=O)n([C@H]3CCC(C)(C)C3)n2)cn1 | -18% | 1.94
16 | CCN1CCO[C@H](C(=O)N2CCC(c3nc(N(C)C)no3)CC2)C1 | -36% | 4.21
17 | CC1CCCC(N(C)C(=O)NCCCC(C)(C)CO)C1 (stereo not given) | 3% | -0.23
18 | O=C1COc2ccccc2N1Cc1nc(-c2ccc(N3CCOCC3)cc2)no1 | -19% | 2.51
19 | COCCNC(=O)c1cc2cc(NC(=O)c3ccc(C(C)(C)C)cc3)ccc2n1Cc1cccc(F)c1 | -2% | 0.31
20 | O=C(COC[C@H]1CCCCO1)N1CCN(c2ncc[nH]c2=O)CC1 | -7% | 1
21 | CCOc1ccc(CCNC(=O)c2nn(-c3ccccc3)c(=O)n(C)c2=O)cc1OCC | -10% | 0.91
22 | COc1ccc(CCNc2oc(-c3cccnc3)nc2C#N)cc1OC | 34% | -5.48
23 | O=C(NCc1nc(CN2CCCCC2)no1)c1cccc(F)c1O | -4% | 0.69
24 | CCC1CC(C(=O)N2CCCC2CC(O)c2cccs2)CCO1 (stereo not given) | -11% | 1.15
25 | Cc1cc(CN(C)Cc2oc3ccccc3c2C)on1 | -8% | 0.8
26 | Cc1cc(C(=O)N[C@@H](CC(C)C)c2ncnn2C)nc(C)n1 | -6% | 0.86
27 | CCCNc1ccccc1C(=O)N1CCC2(CC1)CN(C)CCN2C | -10% | 1.35
28 | O=C(CCc1ccccc1F)N1CCC[C@H](S(=O)(=O)c2ccc(F)cc2)C1 | -11% | 1.44

Row | SMILES | % Inhibition | Z score
29 | CC(C)CN1C(=O)[C@]2(CC(=O)Nc3c2cnn3-c2ccc(F)cc2)c2ccc(F)cc21 | -16% | 2.23
30 | O=C(c1ccc2nc(C3CC3)oc2c1)N1CCCC[C@@H]1CCn1ccnc1 | -6% | 0.71
31 | CCCS(=O)(=O)NC(c1ccc(OC)nc1)[C@H]1C[C@@H](O)C1 (stereo not given in full) | 8% | -1.09
32 | O=C(CC1CC1)N1CC[C@H]2C(=O)N(Cc3ccc(F)cc3)CCN2CC1 | -11% | 1.44
33 | Cc1ccc(CN2CCCN(C(=O)Cn3cc(C#N)cn3)CC2)cc1 | -1% | 0.21
34 | O=C(Nc1cccnc1)NC1CCCC1 | -11% | 1.56
35 | CC[C@@H](C(=O)NCc1ccc(F)c(Cl)c1)N(C)CC | 9% | -1.41
36 | CC(C)[C@@](C)(O)CNCc1cn(C2CCCC2)nc1-c1ccccn1 | -7% | 0.77
37 | NC(=O)OCCNC(=O)C[C@@H]1C=CCC1 | -2% | 0.32
38 | COCCn1ccc(-c2cccc(-c3cccnc3)c2)n1 | -1% | 0.19
39 | C[C@H]1CCCN(C(=O)C2CCN(Cc3ccncc3)CC2)CC1 | 6% | -0.75
40 | CCCc1noc(Cn2nc(CC)nc2CC)n1 | -8% | 1.14
41 | O=S(=O)(CCN1CCOC2CCCCC21)c1ccccc1 (stereo not given) | -5% | 0.7
42 | c1ccc(CCN2CCN(CCc3ccccn3)CC2)nc1 | -10% | 1.93
43 | CCNC(=O)N1CC[C@H](Oc2ccc3ccccc3n2)C1 | 57% | -3
44 | CN(Cc1cc2n(n1)CCNC2)C[C@]1(c2ccccc2)CC1(C)C | 1% | -0.11
45 | Cc1ccc(NCc2ccc(C#N)cc2)c2c1CC(C)(C)O2 | -5% | 0.65
46 | CN(C)S(=O)(=O)[C@@H]1CCN(C(=O)OCc2ccccc2)C1 | -5% | 0.79
47 | Cc1nn(CC(N)=O)c(C)c1-c1ccc2c(c1)OCCO2 | 6% | -1.21
48 | CNC(=O)Cc1nc(CN2C[C@H](C)Oc3ccc(OC)cc32)cs1 | -5% | 0.55
49 | CC[C@H](O)c1ccc(-c2cccc(-c3cc[nH]n3)c2)cc1 | -13% | 1.72
50 | CCN1CCN(c2nc3ncn(CC(=O)Nc4cc(C)ccc4OC)c(=O)c3s2)CC1 | -2% | 0.36
51 | COc1ccc2c(c1)N(CCc1ccncc1)CCO2 | -16% | 2.49
52 | Cc1cc(C)cc(NC(=O)N[C@@H](C)C(C)(C)C)c1 | -4% | 0.54
53 | O=C(c1nn(-c2ccccc2)c(=O)c2ccccc12)N1CCC[C@H]1c1ccc2c(c1)OCCO2 | 5% | -0.57
54 | O=C1[C@H]2CCCCN2C(=O)CN1Cc1ccccc1 | -20% | 1.83
55 | CC1(C)O[C@H]2[C@H](O)C[C@](OCc3ccccc3)(C(=O)NCc3ccco3)C[C@H]2O1 | -5% | 0.5
